In the supplement of paper PMC11417369:
This is one part of the list.

Tested on: PfAP2-HC AP2 domain (GST-tagged)
Assay: gcPBM binding intensity (ln(normalized median fluorescence intensity)); higher = stronger DNA binding
Outline: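 DNA-binding domains from P. falciparum, fused to GST and produced in E. coli, were put on an Agilent 4 × 180k double-stranded probe array for 1 h in 1× PBS holding 1% milk, 0.2 mg/ml BSA, 0.5% salmon testes DNA and 0.03% Triton X-100. Probes were primer-extended, 36 bp long and drawn from intergenic genomic regions, with negative controls included. After Alexa488 anti-GST antibody detection and a 488 nm scan, binding intensity was set as the highest Masliner-normalised natural-log median intensity across replicate spots of either probe orientation.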

| Sequence | gcPBM binding intensity (ln) |
| --- | --- |
| AACAAAAAAACAAACACACACACACCCATATATATA [CACACA_site3652] | 10.6 |
| TCATACATTTTCCTTGCACACATTTATAATTAATGT [CACACA_site614] | 10.3 |
| AAAAAAATCACATAATATACTTTATTTTATTTTGTA [GTGCAC_negctrl_site562] | 9.56 |
| ACAAAGAACTATAATACACACAAGAATATATTGGAT [CACACA_site7771] | 10.3 |
| TTATAAGATTTATGTACACACATATACACCCCTCTA [CACACA_site4562] | 9.94 |
| TATATATAGAAACACACACACACATATATATATATT [CACACA_site2539] | 11.3 |
| GTTATAGAAGCATTCACACACACACCGACATACACA [CACACA_site4914] | 10.3 |
| ATAAATTATATTCAAGTGCATGTAACTTATTATTAT | 9.64 |
| AATAATTAAATATATTTATAACAGGAAAATATTTAT [XGTACX_negctrl_site175] | 9.51 |
| TAAATAATCATAGTTCTACACACCTATATTGCAAAA [CACACA_site8190] | 9.68 |
| AAAAAAAAAAATTCCAGTACACACAATAATACTAAA [XGTACX_site5930] | 9.92 |
| ATATATATAATATGATGTACTATTTTGATAAAAAAT [XGTACX_site3975] | 9.67 |
| AATATATTGCACCATTGGACCTGAATAATTCTTCCA [CACACA_negctrl_site1071] | 9.54 |
| GTAAGAAACGGACACACACACATATATATATATATA [CACACA_site4593] | 10.9 |
| AAATAGTCTTCTCTTGCATGTAACAAATATATATAT [TGCATGCA_site428] | 9.59 |
| TAGTAAGAATTACTGTGTACTAAAATATTAAAAAGT [XGTACX_site2578] | 9.77 |
| AATAAAAACAAACAAAAAAACAAATAAATAAATAAA [CACACA_negctrl_site483] | 9.72 |
| ATATTTTTTATAAAATGTACTTATTATTAGAATATA [XGTACX_site2460] | 9.4 |
| ACATATAAGTTATATACACACAATAATATGTAAATA [CACACA_site6766] | 9.89 |

| Sequence | gcPBM binding intensity (ln) |
| --- | --- |
| TACAAAATATGGTAATAAAGTAGTTACATGAATTGG [XGTACX_negctrl_site522] | 9.65 |
| AATATATACATATGTATGCACTTTTTAATTATTTTT | 9.84 |
| TATTATAATATATTTGTGCACATAATACCTCCGCTA [GTGCAC_site9570] | 9.66 |
| GTTATAGAAGCATTCACACACACACGGACATACACA [CACACA_site6801] | 10.7 |
| TTTTTTTATAAAAATGAACACACACCGATATATATA [CACACA_site9161] | 10.2 |
| AAAAAAAAAAAAAAAACACACATAAATAGCTCAAAT [CACACA_site3973] | 9.92 |
| CACATACCCATACAAACACACATTATATATATATAT [CACACA_site4965] | 10 |
| ATATCGTGTGCATTAACACACATTTATTTGAATAAA [CACACA_site7162] | 9.84 |
| GATATATAAATAGATACACACATACATACATACATA [CACACA_site6260] | 10.1 |
| TACGATTAAAAAAAATGTACAGATTTTTATAGAATA [XGTACX_site6561] | 9.36 |
| ATATTACCCATATATGCACACATTGTAGTTATTTAT [CACACA_site2636] | 10.2 |
| TTTTGTAGCAAAAAATAGGAAAAAAAAAAATTAAAT [GTGCAC_negctrl_site8] | 9.35 |
| ATATAATTACCATATGGTACACACATATATATATGT [XGTACX_site7393] | 10.2 |
| TTAAGATACAAAAAAGTGCATATTTTTTAACAAAAA | 9.57 |
| TTAAGATATATAAAGAGTACACATAAGAGTAATGCT [XGTACX_site58] | 9.76 |
| TATAATACATTATATTGTACTATATTATAATAAATT [XGTACX_site5934] | 9.53 |
| ACAAATAAAAATATTACACACACTATTCTAGTGATA [CACACA_site6812] | 9.99 |
| GACAAATTATTGTGTACACAATATTATTATATATAC [CACACA_site6020] | 9.82 |
| CTTATGTTTTTTAAGTGTACATATTATACGTATTAT [XGTACX_site1176] | 9.85 |

| Sequence | gcPBM binding intensity (ln) |
| --- | --- |
| TAAATATATATAATTACACACTTTTCTATAATATGA [CACACA_site711] | 9.58 |
| AATATAAACATAGATAGATAAATAAATAAATAAACA [GTGCAC_negctrl_site567] | 9.8 |
| AACAGATATATATGTAGTACATGTTCTAGATATTTT [XGTACX_site1208] | 9.75 |
| AATAATTGTTAAAGGTGTACAATACGTATGTAAGAA [XGTACX_site1328] | 10.1 |
| ATGTAGACATAATGGGGTACAAAAAAAAAAAAAAAA [XGTACX_site881] | 9.49 |
| TATCATTTTGTATATAGTACATATATAAAATCGTTA [XGTACX_site3875] | 9.48 |
| AAAAAAAATAAAAATAAAAATAAAAATAAAAATAAA [GTGCAC_negctrl_site437] | 9.21 |
| CAAGCACCCAGACACACACACACACCCACACCCACA [CACACA_site369] | 11.2 |
| ATAAAAATAACATATAAACACACATATATATATATA [CACACA_site9267] | 9.64 |
| AGTCATTAAATATAATGTACATGGAAAAACAGCTGA [XGTACX_site7944] | 9.73 |
| GGAATATTTATACATACACACATATATTTATTTATA [CACACA_site6883] | 9.9 |
| AATAATAATAAATATACACACATCATACAATTAACA [CACACA_site3679] | 10.5 |
| TATTTTTTTCTTACTACACACATATAGATGCTTTCC [CACACA_site7825] | 9.83 |
| GGTCTTTTCAACACACGTACATAAAAATATTATACA [XGTACX_site5360] | 9.78 |
| TAAACATATAGAGGGGTGCAAAGAATTGTAAAATTT | 9.72 |
| TATATATTGATATGCACACCTATGTATTGATGTATA [CACACA_site1073] | 9.77 |
| TATATATATAATTAAAGTACATATAACCACAAAAAT [XGTACX_site7289] | 9.85 |
| ACATAAATTTAATACACACACAAAGAAAAAAAAAAA [CACACA_site4088] | 10.9 |
| TAATATAATATATATACACACAAGAAATACAAAACG [CACACA_site1378] | 10.4 |
